# The supplement of paper PMC8728848
# The list shows a part of the results.
# B1: SP16664B-bot-474-25-474 (Bacteroides ovatus) (protein)
# chain: CEEDIEIGNKIDESSYLASTQLSGLLLDENTNKNSSVIELRNNEYSTNVVFRLSKLPQKGVDVQIAVEESYAAIYNTIHETDFEVFPAANVKIANNGTFVLAPDDKVTPSVKVTLTAFDGMEEDKTYIVPLTVTSSTEGVTFTETSKHMVLLVQDYRNKPNTNKGEDAVQTVLYFEVNDTNPLNALEFLTESGKYFFDHIVLFAANINWDPEKQRVYLANNENVQFLLDNNDKYLQPLRKAGMKIIISILGNHDEAGVAQLSDMGAREFARELAAYCRAYNLDGVAFDDEYSNSPDLSNPWLASPSAYAGSRLMYECKAVMPEKIVSLYNLGNMYSSSLQVIDGIEPGQYCDYAVADYGGAAGPGTGMTLKQCAGMSIELRRGSGNSSESTARSRKEAGYGYYMFFALDPSLYGSQVYRCQSVCKGLYDETLVYPSYYYKKNSTEREAIN
# Legend:
# Assay in all cases: glycan array binding signal (z-score within array); higher = stronger binding
# Details in all cases: glycan notation: IUPAC condensed, linker removed
# [1] = target: GlcNAc(a1-6)Gal(b1-4)GlcNAc
# Method in brief: (§1)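 Negative Z-scores can be read as non-binding. The Z-score is calculated within each array and then averaged across arrays of one protein sequence at different concentrations or buffers and across linkers. Arrays, 3228 in all, were curated from the Consortium for Functional Glycomics database and kept only where the protein sequence was available.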
# [2] = target: GlcNAc(b1-2)Gal(b1-3)GalNAc
# Method in brief: as §1
# [3] = target: GlcNAc(b1-2)Man(a1-3)[GlcNAc(b1-2)Man(a1-6)]Man(b1-4)GlcNAc(b1-4)GlcNAc
# Method in brief: as §1
# [4] = target: GlcNAc(b1-2)Man(a1-3)[GlcNAc(b1-2)Man(a1-6)]Man(b1-4)GlcNAc(b1-4)[Fuc(a1-6)]GlcNAc
# Method in brief: as §1
# [5] = target: GlcNAc(b1-2)Man(a1-3)[GlcNAc(b1-4)][GlcNAc(b1-2)Man(a1-6)]Man(b1-4)GlcNAc(b1-4)GlcNAc
# Method in brief: as §1
# [6] = target: GlcNAc(b1-2)Man(a1-3)[GlcNAc(b1-4)][GlcNAc(b1-2)Man(a1-6)]Man(b1-4)GlcNAc(b1-4)[Fuc(a1-6)]GlcNAc
# Method in brief: as §1
# [7] = target: GlcNAc(b1-2)[GlcNAc(b1-4)]Man(a1-3)[GlcNAc(b1-2)Man(a1-6)]Man(b1-4)GlcNAc(b1-4)GlcNAc
# Method in brief: as §1
# [8] = target: GlcNAc(b1-2)[GlcNAc(b1-4)]Man(a1-3)[GlcNAc(b1-4)][GlcNAc(b1-2)Man(a1-6)]Man(b1-4)GlcNAc(b1-4)GlcNAc
# Method in brief: as §1
# [9] = target: GlcNAc(b1-2)[GlcNAc(b1-4)]Man(a1-3)[GlcNAc(b1-4)][GlcNAc(b1-2)[GlcNAc(b1-6)]Man(a1-6)]Man(b1-4)GlcNAc(b1-4)GlcNAc
# Method in brief: as §1
# [10] = target: GlcNAc(b1-2)[GlcNAc(b1-4)]Man(a1-3)[GlcNAc(b1-4)][GlcNAc(b1-2)[GlcNAc(b1-6)]Man(a1-6)]Man(b1-4)GlcNAc(b1-4)[Fuc(a1-6)]GlcNAc
# Method in brief: as §1
# [11] = target: GlcNAc(b1-2)[GlcNAc(b1-6)]Man(a1-6)[GlcNAc(b1-2)Man(a1-3)]Man(b1-4)GlcNAc(b1-4)GlcNAc
# Method in brief: as §1
# [12] = target: GlcNAc(b1-2)[GlcNAc(b1-6)]Man(a1-6)[GlcNAc(b1-2)Man(a1-3)]Man(b1-4)GlcNAc(b1-4)[Fuc(a1-6)]GlcNAc
# Method in brief: as §1
# [13] = target: GlcNAc(b1-2)[GlcNAc(b1-6)]Man(a1-6)[GlcNAc(b1-4)][GlcNAc(b1-2)Man(a1-3)]Man(b1-4)GlcNAc(b1-4)GlcNAc
# Method in brief: as §1
# GlcNAc(b1-3)Fuc = target: GlcNAc(b1-3)Fuc
# Method in brief: as §1
# GlcNAc(b1-3)Gal = target: GlcNAc(b1-3)Gal
# Method in brief: as §1
# [14] = target: GlcNAc(b1-3)Gal(b1-3)GalNAc
# Method in brief: as §1
# GlcNAc(b1-3)Gal(b1-4)Glc = target: GlcNAc(b1-3)Gal(b1-4)Glc
# Method in brief: as §1
# [15] = target: GlcNAc(b1-3)Gal(b1-4)GlcNAc
# Method in brief: as §1
# [16] = target: GlcNAc(b1-3)Gal(b1-4)GlcNAc(b1-2)Man(a1-3)[GlcNAc(b1-3)Gal(b1-4)GlcNAc(b1-2)Man(a1-6)]Man(b1-4)GlcNAc(b1-4)GlcNAc
# Method in brief: as §1
# [17] = target: GlcNAc(b1-3)Gal(b1-4)GlcNAc(b1-2)Man(a1-3)[GlcNAc(b1-3)Gal(b1-4)GlcNAc(b1-2)Man(a1-6)]Man(b1-4)GlcNAc(b1-4)[Fuc(a1-6)]GlcNAc
# Method in brief: as §1
# [18] = target: GlcNAc(b1-3)Gal(b1-4)GlcNAc(b1-2)[GlcNAc(b1-3)Gal(b1-4)GlcNAc(b1-6)]Man(a1-6)[GlcNAc(b1-3)Gal(b1-4)GlcNAc(b1-2)Man(a1-3)]Man(b1-4)GlcNAc(b1-4)GlcNAc
# Method in brief: as §1
# [19] = target: GlcNAc(b1-3)Gal(b1-4)GlcNAc(b1-3)Gal(b1-4)GlcNAc
# Method in brief: as §1
# [20] = target: GlcNAc(b1-3)Gal(b1-4)GlcNAc(b1-3)Gal(b1-4)GlcNAc(b1-2)Man(a1-3)[GlcNAc(b1-3)Gal(b1-4)GlcNAc(b1-3)Gal(b1-4)GlcNAc(b1-2)Man(a1-6)]Man(b1-4)GlcNAc(b1-4)GlcNAc
# Method in brief: as §1
# [21] = target: GlcNAc(b1-3)Gal(b1-4)GlcNAc(b1-3)Gal(b1-4)GlcNAc(b1-2)Man(a1-3)[GlcNAc(b1-3)Gal(b1-4)GlcNAc(b1-3)Gal(b1-4)GlcNAc(b1-2)Man(a1-6)]Man(b1-4)GlcNAc(b1-4)[Fuc(a1-6)]GlcNAc
# Method in brief: as §1
# [22] = target: GlcNAc(b1-3)Gal(b1-4)GlcNAc(b1-3)Gal(b1-4)GlcNAc(b1-2)[GlcNAc(b1-3)Gal(b1-4)GlcNAc(b1-3)Gal(b1-4)GlcNAc(b1-6)]Man(a1-6)[GlcNAc(b1-3)Gal(b1-4)GlcNAc(b1-3)Gal(b1-4)GlcNAc(b1-2)Man(a1-3)]Man(b1-4)GlcNAc(b1-4)[Fuc(a1-6)]GlcNAc
# Method in brief: as §1
# [23] = target: GlcNAc(b1-3)Gal(b1-4)GlcNAc(b1-3)Gal(b1-4)GlcNAc(b1-3)Gal(b1-4)GlcNAc(b1-2)Man(a1-3)[GlcNAc(b1-3)Gal(b1-4)GlcNAc(b1-3)Gal(b1-4)GlcNAc(b1-3)Gal(b1-4)GlcNAc(b1-2)Man(a1-6)]Man(b1-4)GlcNAc(b1-4)GlcNAc
# Method in brief: as §1
# [24] = target: GlcNAc(b1-3)Gal(b1-4)GlcNAc(b1-3)Gal(b1-4)GlcNAc(b1-3)Gal(b1-4)GlcNAc(b1-2)Man(a1-3)[GlcNAc(b1-3)Gal(b1-4)GlcNAc(b1-3)Gal(b1-4)GlcNAc(b1-3)Gal(b1-4)GlcNAc(b1-2)Man(a1-6)]Man(b1-4)GlcNAc(b1-4)[Fuc(a1-6)]GlcNAc
# Method in brief: as §1
# [25] = target: GlcNAc(b1-3)Gal(b1-4)GlcNAc(b1-3)Gal(b1-4)GlcNAc(b1-3)Gal(b1-4)GlcNAc(b1-2)[GlcNAc(b1-3)Gal(b1-4)GlcNAc(b1-3)Gal(b1-4)GlcNAc(b1-3)Gal(b1-4)GlcNAc(b1-6)]Man(a1-6)[GlcNAc(b1-3)Gal(b1-4)GlcNAc(b1-3)Gal(b1-4)GlcNAc(b1-3)Gal(b1-4)GlcNAc(b1-2)Man(a1-3)]Man(b1-4)GlcNAc(b1-4)[Fuc(a1-6)]GlcNAc
# Method in brief: as §1
# [26] = target: GlcNAc(b1-3)Gal(b1-4)GlcNAc(b1-3)Gal(b1-4)GlcNAc(b1-3)Gal(b1-4)GlcNAc(b1-3)Gal(b1-4)GlcNAc(b1-2)Man(a1-3)[GlcNAc(b1-3)Gal(b1-4)GlcNAc(b1-3)Gal(b1-4)GlcNAc(b1-3)Gal(b1-4)GlcNAc(b1-3)Gal(b1-4)GlcNAc(b1-2)Man(a1-6)]Man(b1-4)GlcNAc(b1-4)GlcNAc
# Method in brief: as §1
# [27] = target: GlcNAc(b1-3)Gal(b1-4)GlcNAc(b1-3)Gal(b1-4)GlcNAc(b1-3)Gal(b1-4)GlcNAc(b1-3)Gal(b1-4)GlcNAc(b1-2)Man(a1-3)[GlcNAc(b1-3)Gal(b1-4)GlcNAc(b1-3)Gal(b1-4)GlcNAc(b1-3)Gal(b1-4)GlcNAc(b1-3)Gal(b1-4)GlcNAc(b1-2)Man(a1-6)]Man(b1-4)GlcNAc(b1-4)[Fuc(a1-6)]GlcNAc
# Method in brief: as §1
# [28] = target: GlcNAc(b1-3)Gal(b1-4)GlcNAc(b1-3)Gal(b1-4)GlcNAc(b1-3)Gal(b1-4)GlcNAc(b1-3)Gal(b1-4)GlcNAc(b1-2)[GlcNAc(b1-3)Gal(b1-4)GlcNAc(b1-3)Gal(b1-4)GlcNAc(b1-3)Gal(b1-4)GlcNAc(b1-3)Gal(b1-4)GlcNAc(b1-6)]Man(a1-6)[GlcNAc(b1-3)Gal(b1-4)GlcNAc(b1-3)Gal(b1-4)GlcNAc(b1-3)Gal(b1-4)GlcNAc(b1-3)Gal(b1-4)GlcNAc(b1-2)Man(a1-3)]Man(b1-4)GlcNAc(b1-4)[Fuc(a1-6)]GlcNAc
# Method in brief: as §1
# [29] = target: GlcNAc(b1-3)Gal(b1-4)GlcNAc(b1-3)Gal(b1-4)GlcNAc(b1-3)GalNAc
# Method in brief: as §1
# [30] = target: GlcNAc(b1-3)Gal(b1-4)GlcNAc(b1-3)GalNAc
# Method in brief: as §1
# [31] = target: GlcNAc(b1-3)Gal(b1-4)GlcNAc(b1-3)[GlcNAc(b1-3)Gal(b1-4)GlcNAc(b1-3)]GalNAc
# Method in brief: as §1
# [32] = target: GlcNAc(b1-3)Gal(b1-4)GlcNAc(b1-6)[Gal(b1-3)]GalNAc
# Method in brief: as §1
# [33] = target: GlcNAc(b1-3)Gal(b1-4)GlcNAc(b1-6)[GlcNAc(b1-3)Gal(b1-3)]GalNAc
# Method in brief: as §1
# [34] = target: GlcNAc(b1-3)Gal(b1-4)GlcNAc(b1-6)[GlcNAc(b1-3)]Gal(b1-4)GlcNAc
# Method in brief: as §1
binder,measurement,setting,value
B1,glycan array binding signal (z-score),[1],-0.412
same,glycan array binding signal (z-score),[2],-0.331
same,glycan array binding signal (z-score),[3],-0.424
same,glycan array binding signal (z-score),[4],-0.542
same,glycan array binding signal (z-score),[5],-0.294
same,glycan array binding signal (z-score),[6],-0.382
same,glycan array binding signal (z-score),[7],0.16
same,glycan array binding signal (z-score),[8],-0.088
same,glycan array binding signal (z-score),[9],-0.186
same,glycan array binding signal (z-score),[10],-0.363
same,glycan array binding signal (z-score),[11],-0.171
same,glycan array binding signal (z-score),[12],-0.117
same,glycan array binding signal (z-score),[13],-0.293
same,glycan array binding signal (z-score),GlcNAc(b1-3)Fuc,-0.38
same,glycan array binding signal (z-score),GlcNAc(b1-3)Gal,0.092
same,glycan array binding signal (z-score),[14],0.854
same,glycan array binding signal (z-score),GlcNAc(b1-3)Gal(b1-4)Glc,-0.509
same,glycan array binding signal (z-score),[15],-0.365
same,glycan array binding signal (z-score),[16],0.008
same,glycan array binding signal (z-score),[17],0.352
same,glycan array binding signal (z-score),[18],0.178
same,glycan array binding signal (z-score),[19],0.239
same,glycan array binding signal (z-score),[20],0.873
same,glycan array binding signal (z-score),[21],11.2
same,glycan array binding signal (z-score),[22],-0.22
same,glycan array binding signal (z-score),[23],0.76
same,glycan array binding signal (z-score),[24],0.462
same,glycan array binding signal (z-score),[25],0.018
same,glycan array binding signal (z-score),[26],-0.189
same,glycan array binding signal (z-score),[27],0.334
same,glycan array binding signal (z-score),[28],0.26
same,glycan array binding signal (z-score),[29],-0.379
same,glycan array binding signal (z-score),[30],0.102
same,glycan array binding signal (z-score),[31],-0.158
same,glycan array binding signal (z-score),[32],1.57
same,glycan array binding signal (z-score),[33],1.42
same,glycan array binding signal (z-score),[34],-0.162
